Reference: article PMC12184805 (Journal of medicinal chemistry, 2025)
Values belong to the compound of their own block, whether it stands above or below them.

Assays:
MPC-11 myeloma cells = experiment: MPC-11 mouse myeloma tumor growth; assay type: in vivo, BALB/c mice; conditions: for tumor growth inhibitor index (TGI): MPC-11 s.c. in BALB/c mice, i.p. treatment, termination day 17
FXa = FXa (Bos taurus, UniProt P00743); experiment: Factor Xa chromogenic substrate assay; assay type: biochemical; conditions: anticoagulant activity against FXa
[1] = tested on: Human recombinant CXCL4/platelet factor 4 (PF4); experiment: Platelet factor 4 binding assay; conditions: HPSE vs PF4 (BLI)
U-87 MG cells = experiment: Matrigel invasion assay; assay type: cell-based, human; conditions: nontoxic ligand concentrations 15–50 μM; 24 h
[2] = target: T1, recombinant human heparanase (Homo sapiens, UniProt Q9Y251); experiment: Extracellular matrix degradation assay; conditions: 5 μg/mL ligand; HS degradation fragments, peak II
T1 sequence (Q9Y251 36-543): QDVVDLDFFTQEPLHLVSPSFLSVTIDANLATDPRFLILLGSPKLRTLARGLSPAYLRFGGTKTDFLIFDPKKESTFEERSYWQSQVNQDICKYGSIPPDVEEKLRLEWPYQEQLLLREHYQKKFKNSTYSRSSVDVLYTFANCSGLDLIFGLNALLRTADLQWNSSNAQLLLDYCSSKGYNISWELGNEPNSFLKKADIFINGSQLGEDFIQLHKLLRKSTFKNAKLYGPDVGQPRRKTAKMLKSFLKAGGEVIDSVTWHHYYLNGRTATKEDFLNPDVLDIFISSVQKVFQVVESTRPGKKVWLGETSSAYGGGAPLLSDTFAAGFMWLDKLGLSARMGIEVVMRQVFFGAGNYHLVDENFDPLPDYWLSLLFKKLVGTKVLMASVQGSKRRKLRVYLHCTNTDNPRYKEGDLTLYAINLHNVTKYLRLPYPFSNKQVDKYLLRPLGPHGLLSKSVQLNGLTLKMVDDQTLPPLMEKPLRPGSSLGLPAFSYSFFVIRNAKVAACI

B16 melanoma cells = experiment: B16 melanoma experimental metastasis; assay type: in vivo, C57BL/6J mice; conditions: 200 μg per mouse i.p.; day 17; vs PBS control
U-87 glioblastoma cells = experiment: WST-1 cell viability assay; conditions: 120 μM, U-87 cells
[3] = target: T2, recombinant human heparanase (HPSE) (Homo sapiens, UniProt Q9Y251); experiment: Heparanase inhibition TR-FRET assay; assay type: biochemical; conditions: fluorescent HS substrate, mean ± SD (n = 3)
T2 sequence (Q9Y251 158-543 limits assumed): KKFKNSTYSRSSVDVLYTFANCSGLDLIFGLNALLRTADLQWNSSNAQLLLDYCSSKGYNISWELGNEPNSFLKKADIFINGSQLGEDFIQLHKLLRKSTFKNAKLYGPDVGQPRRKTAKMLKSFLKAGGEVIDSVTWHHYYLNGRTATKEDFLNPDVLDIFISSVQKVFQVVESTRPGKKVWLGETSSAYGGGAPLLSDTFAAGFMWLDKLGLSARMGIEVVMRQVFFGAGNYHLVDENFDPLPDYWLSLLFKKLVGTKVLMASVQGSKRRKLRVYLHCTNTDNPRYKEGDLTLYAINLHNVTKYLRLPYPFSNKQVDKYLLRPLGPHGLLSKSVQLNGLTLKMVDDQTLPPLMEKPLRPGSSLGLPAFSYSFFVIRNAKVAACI
T2 sequence (Q9Y251 36-109 limits assumed): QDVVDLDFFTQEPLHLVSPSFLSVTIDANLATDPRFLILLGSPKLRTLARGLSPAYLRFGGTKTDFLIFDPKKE

IC50 (FXa): > 500 µM
amount of released sulfate-labeled material (% CPM) [2]: 1.32%
Compound: 1,2′,2‴,3,6‴-Penta-N-sulfo-2″,3′,3‴,4,4′,4‴-hexa-O-(2-naphthylmethyl)-5″,6′-(N-1-naphthyl)-paromomycindicarboxamide [Ligand L17]
tumor growth inhibitor index (TGI) (MPC-11 myeloma cells): 83.1%
tumor growth (MPC-11 myeloma cells; daily i.p. injections over 16 days, vs untreated control and GPM-2-treated group): significantly reduced tumor growth
selectivity for HPSE over PF4 [1]: over 100 fold
U-87 cell invasion (U-87 MG cells): significant reduction
lung metastasis (B16 melanoma cells): significant reduction in lung metastasis
cell viability (U-87 glioblastoma cells): 39%

IC50 [3]: 0.0201 ± 0.0013 µM
Compound: 1,2′,2‴,3,6‴-Penta-N-sulfo-6′,5″-di-O-sulfo-2″,3′,3‴,4,4′,4‴-hexa-O-(2-naphthylmethyl)-paromomycin [Ligand L11]

IC50 (FXa): 15.6 µM
Compound: CC(C)CCC[C@@H](C)[C@H]1CC[C@H]2[C@@H]3CC[C@H]4C[C@@H](O[C@@H]5O[C@H](COS(=O)(=O)O)[C@@H](O[C@H]6O[C@H](COS(=O)(=O)O)[C@@H](O[C@H]7O[C@H](COS(=O)(=O)O)[C@@H](O[C@H]8O[C@H](COS(=O)(=O)O)[C@@H](OS(=O)(=O)O)[C@H](OS(=O)(=O)O)[C@H]8OS(=O)(=O)O)[C@H](OS(=O)(=O)O)[C@H]7OS(=O)(=O)O)[C@H](OS(=O)(=O)O)[C@H]6OS(=O)(=O)O)[C@H](OS(=O)(=O)O)[C@H]5OS(=O)(=O)O)CC[C@]4(C)[C@H]3CC[C@]12C [PG545, reference compound]
cell viability (U-87 glioblastoma cells): 45%

IC50 [3]: 0.0234 ± 0.00391 µM
Compound: 1,2′,2‴,3,6‴-Penta-N-sulfo-2″,3′,3‴,4,4′,4‴,5″,6′-octa-O-(2-naphthylmethyl)-paromomycin [Ligand L10]

Compound: CC(C)C[C@H](NC(=O)[C@H](Cc1ccccc1)NC(=O)c1cnccn1)B(O)O [bortezomib, reference compound]
tumor growth inhibitor index (TGI) (MPC-11 myeloma cells): 81.7%

IC50 [3]: 14.9 ± 1.79 µM
Compound: 1,2′,2‴,3,6‴-Penta-N-sulfo-5″,6′-di-O-sulfo-paramomycin [Ligand L2]

IC50 [3]: 37.2 ± 1.5 µM
Compound: 1,2′,2‴,3,6‴-Penta-N-sulfo-paramomycin [Ligand L1]
